Some of the results follow.
Tests used:
Assay in all cases: glycan array binding signal (z-score within array); higher = stronger binding
Conditions in all cases: glycan notation: IUPAC condensed, linker removed; mutation: E227A
[1] = molecular target: Neu5Ac(a2-6)Gal(b1-4)GlcNAc(b1-2)Man(a1-3)[GlcNAc(b1-4)][Neu5Ac(a2-6)Gal(b1-4)GlcNAc(b1-2)Man(a1-6)]Man(b1-4)GlcNAc(b1-4)GlcNAc
Outline: (§1)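 From the Consortium for Functional Glycomics database, 3228 arrays were curated, keeping only those whose protein sequence was available. Binding is given as a within-array Z-score averaged across arrays sharing a protein sequence and across linkers. Negative Z-scores can be read as non-binding.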

[2] = molecular target: Neu5Ac(a2-6)Gal(b1-4)GlcNAc(b1-2)Man(a1-3)[Man(a1-6)]Man(b1-4)GlcNAc(b1-4)GlcNAc
Outline: as §1

[3] = molecular target: Neu5Ac(a2-6)Gal(b1-4)GlcNAc(b1-2)Man(a1-3)[Neu5Ac(a2-3)Gal(b1-4)GlcNAc(b1-2)Man(a1-6)]Man(b1-4)GlcNAc(b1-4)GlcNAc
Outline: as §1

[4] = molecular target: Neu5Ac(a2-6)Gal(b1-4)GlcNAc(b1-2)Man(a1-3)[Neu5Ac(a2-6)Gal(b1-4)GlcNAc(b1-2)Man(a1-6)]Man(b1-4)GlcNAc(b1-4)GlcNAc
Outline: as §1

[5] = molecular target: Neu5Ac(a2-6)Gal(b1-4)GlcNAc(b1-2)Man(a1-3)[Neu5Ac(a2-6)Gal(b1-4)GlcNAc(b1-2)Man(a1-6)]Man(b1-4)GlcNAc(b1-4)[Fuc(a1-6)]GlcNAc
Outline: as §1

[6] = molecular target: Neu5Ac(a2-6)Gal(b1-4)GlcNAc(b1-2)Man(a1-6)Man(b1-4)GlcNAc(b1-4)GlcNAc
Outline: as §1

[7] = molecular target: Neu5Ac(a2-6)Gal(b1-4)GlcNAc(b1-2)Man(a1-6)[Gal(b1-4)GlcNAc(b1-2)Man(a1-3)]Man(b1-4)GlcNAc(b1-4)GlcNAc
Outline: as §1

[8] = molecular target: Neu5Ac(a2-6)Gal(b1-4)GlcNAc(b1-2)Man(a1-6)[GlcNAc(b1-2)Man(a1-3)]Man(b1-4)GlcNAc(b1-4)GlcNAc
Outline: as §1

[9] = molecular target: Neu5Ac(a2-6)Gal(b1-4)GlcNAc(b1-2)Man(a1-6)[Man(a1-3)]Man(b1-4)GlcNAc(b1-4)GlcNAc
Outline: as §1

[10] = molecular target: Neu5Ac(a2-6)Gal(b1-4)GlcNAc(b1-2)[Neu5Ac(a2-6)Gal(b1-4)GlcNAc(b1-4)]Man(a1-3)[GlcNAc(b1-4)][Neu5Ac(a2-6)Gal(b1-4)GlcNAc(b1-2)[Neu5Ac(a2-6)Gal(b1-4)GlcNAc(b1-6)]Man(a1-6)]Man(b1-4)GlcNAc(b1-4)GlcNAc
Outline: as §1

[11] = molecular target: Neu5Ac(a2-6)Gal(b1-4)GlcNAc(b1-2)[Neu5Ac(a2-6)Gal(b1-4)GlcNAc(b1-4)]Man(a1-3)[GlcNAc(b1-4)][Neu5Ac(a2-6)Gal(b1-4)GlcNAc(b1-4)Man(a1-6)]Man(b1-4)GlcNAc(b1-4)GlcNAc
Outline: as §1

[12] = molecular target: Neu5Ac(a2-6)Gal(b1-4)GlcNAc(b1-2)[Neu5Ac(a2-6)Gal(b1-4)GlcNAc(b1-6)]Man(a1-6)[Neu5Ac(a2-6)Gal(b1-4)GlcNAc(b1-2)Man(a1-3)][GlcNAc(b1-4)]Man(b1-4)GlcNAc(b1-4)GlcNAc
Outline: as §1

[13] = molecular target: Neu5Ac(a2-6)Gal(b1-4)GlcNAc(b1-3)Gal(b1-3)GlcNAc
Outline: as §1

[14] = molecular target: Neu5Ac(a2-6)Gal(b1-4)GlcNAc(b1-3)Gal(b1-4)GlcNAc
Outline: as §1

[15] = molecular target: Neu5Ac(a2-6)Gal(b1-4)GlcNAc(b1-3)Gal(b1-4)GlcNAc(b1-2)Man(a1-3)[Neu5Ac(a2-6)Gal(b1-4)GlcNAc(b1-3)Gal(b1-4)GlcNAc(b1-2)Man(a1-6)]GalNAc
Outline: as §1

[16] = molecular target: Neu5Ac(a2-6)Gal(b1-4)GlcNAc(b1-3)Gal(b1-4)GlcNAc(b1-3)Gal(b1-4)GlcNAc
Outline: as §1

[17] = molecular target: Neu5Ac(a2-6)Gal(b1-4)GlcNAc(b1-3)Gal(b1-4)GlcNAc(b1-3)Gal(b1-4)GlcNAc(b1-2)Man(a1-3)[Neu5Ac(a2-6)Gal(b1-4)GlcNAc(b1-3)Gal(b1-4)GlcNAc(b1-3)Gal(b1-4)GlcNAc(b1-2)Man(a1-6)]GalNAc
Outline: as §1

[18] = molecular target: Neu5Ac(a2-6)Gal(b1-4)GlcNAc(b1-3)Gal(b1-4)GlcNAc(b1-3)GalNAc
Outline: as §1

[19] = molecular target: Neu5Ac(a2-6)Gal(b1-4)GlcNAc(b1-3)Gal(b1-4)GlcNAc(b1-3)[Neu5Ac(a2-6)Gal(b1-4)GlcNAc(b1-3)Gal(b1-4)GlcNAc(b1-6)]GalNAc
Outline: as §1

[20] = molecular target: Neu5Ac(a2-6)Gal(b1-4)GlcNAc(b1-3)Gal(b1-4)GlcNAc(b1-6)[Gal(b1-3)]GalNAc
Outline: as §1

[21] = molecular target: Neu5Ac(a2-6)Gal(b1-4)GlcNAc(b1-3)Gal(b1-4)[Fuc(a1-3)]GlcNAc(b1-3)Gal(b1-4)[Fuc(a1-3)]GlcNAc
Outline: as §1

[22] = molecular target: Neu5Ac(a2-6)Gal(b1-4)GlcNAc(b1-3)GalNAc
Outline: as §1

[23] = molecular target: Neu5Ac(a2-6)Gal(b1-4)GlcNAc(b1-3)[Neu5Ac(a2-6)Gal(b1-4)GlcNAc(b1-6)]GalNAc
Outline: as §1

[24] = molecular target: Neu5Ac(a2-6)Gal(b1-4)GlcNAc(b1-6)GalNAc
Outline: as §1

[25] = molecular target: Neu5Ac(a2-6)Gal(b1-4)GlcNAc(b1-6)[Gal(b1-3)GlcNAc(b1-3)]Gal(b1-4)Glc
Outline: as §1

[26] = molecular target: Neu5Ac(a2-6)Gal(b1-4)GlcNAc(b1-6)[Gal(b1-3)]GalNAc
Outline: as §1

[27] = molecular target: Neu5Ac(a2-6)Gal(b1-4)GlcNAc6S
Outline: as §1

Neu5Ac(a2-6)GalNAc = molecular target: Neu5Ac(a2-6)GalNAc
Outline: as §1

[28] = molecular target: Neu5Ac(a2-6)GalNAc(b1-4)GlcNAc
Outline: as §1

[29] = molecular target: Neu5Ac(a2-6)GalNAc(b1-4)GlcNAc6S
Outline: as §1

B1: Epa1-NP-mutant-E227A (Candida glabrata), Q6VBJ0 (protein)
chain: MILNPALFLNKCVCIYTTLILLLLTNGGYATSSNDISLASKDPTTFPLGCSPDITTPKKGLSMELYSYDFRKKGSYPCWDAAYLDPNYPRTGYKSHRLLAKVDGVTGNINFYYHATKGCTPQLGHLPASYNYPKPLTMTNFTMLLYGYFRPKVTGFHTFTISADDLLFVNFGAGNAFDCCRRDSSADHFGNYQAYAIWGSKTAKDELTVHLDAGVYYPIRLFYNNRAYDGALSFTFKTESNENTVSDFSEYFFSLDDTEEGCPGLISYDSSCASVKTSKIIGIDYHTETPNENLVPITKTIYHLGIPCTGTTTTPLCGSGFYDPLANKCVTINTSSTSSVTKTTSHTTSKEVSFHSSISSQKTLIPKSIPSPYGPIKSQSIPTEMETSSEISSSEYAFSDVISTPSHSPYTKKHSSLNSSSYTSTVIHSLTSYSISQGIFSTSLSEQNITSKSSTDKFSTATSMSNNITQSSIIISQFSTNNENYTTTSMHTSSDKISTETLNNSISTTTSILFSNSSTILKNNTTIISSDKDTHYHPVNPTIVCSTNKTEIICASITQPSISNSNNHWSSSVLKFNSTTVRSTLPSSAGSNETSINVPFSSSTESNTSTSSTSTSNSKMVRSTLPSSAGSNETSISVPFSSSTESNTSTSSTSTSNSKMVRSTLPSSAGSNETSINVPFSSSTESNTSTSSTSTSNSKTVRSTPFSSAGIIMTSLSQRNNKSASSYASSNSKCYNTADSCRKVHSTPSYLLTSSYTSEGVDYDCSLVSTKLKINDTNCVNNKHTTKSCLKTSVTTTIPTLEIKTARKSSSNTIGLHSYPTSSPNKSISSAPIIGYISSFKTIKTASPSYQTSDLTTITTITSLNNPGSTAVENTHESNDKSRKTSSNDISSKHSVIKETKDAVESSNKSHQTNTLKCSSIIIASSSHNSYESLGGTTLTLTLSKVYSPQNNDTLPFLEISEVNPSRTVLPESSKMMQYLTSTEERNKTARNTIATNIVSISTFHFEGEGNAIRMGYTQLLLMLIGIIVMNIGT
- glycan array binding signal (z-score) [1]: -0.193
- glycan array binding signal (z-score) [2]: -0.176
- glycan array binding signal (z-score) [3]: -0.213
- glycan array binding signal (z-score) [4]: -0.199
- glycan array binding signal (z-score) [5]: -0.201
- glycan array binding signal (z-score) [6]: -0.212
- glycan array binding signal (z-score) [7]: -0.191
- glycan array binding signal (z-score) [8]: -0.166
- glycan array binding signal (z-score) [9]: -0.2
- glycan array binding signal (z-score) [10]: -0.174
- glycan array binding signal (z-score) [11]: -0.205
- glycan array binding signal (z-score) [12]: -0.204
- glycan array binding signal (z-score) [13]: -0.214
- glycan array binding signal (z-score) [14]: -0.202
- glycan array binding signal (z-score) [15]: -0.195
- glycan array binding signal (z-score) [16]: -0.198
- glycan array binding signal (z-score) [17]: -0.169
- glycan array binding signal (z-score) [18]: -0.207
- glycan array binding signal (z-score) [19]: -0.173
- glycan array binding signal (z-score) [20]: 0.553
- glycan array binding signal (z-score) [21]: -0.205
- glycan array binding signal (z-score) [22]: -0.179
- glycan array binding signal (z-score) [23]: -0.189
- glycan array binding signal (z-score) [24]: -0.161
- glycan array binding signal (z-score) [25]: -0.078
- glycan array binding signal (z-score) [26]: 0.772
- glycan array binding signal (z-score) [27]: 0.032
- glycan array binding signal (z-score) (Neu5Ac(a2-6)GalNAc): -0.216
- glycan array binding signal (z-score) [28]: -0.222
- glycan array binding signal (z-score) [29]: -0.185

From the supplement of paper PMC8728848
